Assay results reported in the supplement of paper PMC10126150.
Values marked as one replicate rest on one cluster of the flow cell; about a third of the high ones do not repeat.

tested on: ATP; assay: switch fluorescence ratio, 500 uM ATP over buffer (Cy3 cluster intensity, sum of 5 cycles each) (fold (ratio)); higher = stronger signal-on switching upon ATP binding; sequences stand for … in TCGTCGGCAGCGTCAGATGTGTATAAGAGACAGTTTTTTTTTTTTTTTTTTTTTTTTT…TC; settings: aptamer strand: ATP DNA aptamer (quencher-CACCTGGGGGAGTATTGCGGAGGAAGG + anchor), 100 nM annealed; ATP concentration: 500 uM; one replicate
How it was run: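 Values give the fluorescence ratio for each switch-domain sequence, averaged from per-cluster ratios of summed target-cycle to summed buffer-cycle Cy3 intensity. The Cy3-labelled switching-strand clusters sat on a modified Illumina MiSeq flow-cell, were annealed to 100 nM quencher-labelled ATP aptamer, and were imaged in selection buffer, then after 15 min with 500 uM ATP at 22 °C. Five cycles ran with NaOH stripping and re-annealing between them, and clusters outside 100-1000 RFU were excluded.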
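Note: ATP exposure 15 min at 22 °C before imaging.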

Sequence	switch fluorescence ratio
TAATAACTA	1.01
TAATAACTAT	1
TAATCAGGGA	1.03
TAATCATA	1.04
TAATCATGAC	1.09
TAATCCCTTG	0.988
TAATCGGTTC	1.01
TAATCTGGTG	1.05
TAATCTGTCG	0.893
TAATGCTCT	1.03
TAATGGGCAA	1.06
TAATGGTC	0.891
TAATTACGTG	1.01
TAATTAGCTT	1.01
TAATTATTCC	1.17
TAATTCTGAT	0.953
TAATTGTGGG	0.961
TAATTTAACC	1.02
TAATTTGATA	0.998
TAATTTGCGC	1.01
TACAAAGAAT	1.03
TACAAATCT	1.02
TACAATGTGC	0.972
TACAATTTGG	1.01
TACACAAAGG	1.02
TACACAGGGT	1.06

Sequence	switch fluorescence ratio
TACACAGTAT	1.06
TACACCAGCT	1.05
TACACCGAT	1.05
TACACCGTTC	1.09
TACACCTAAC	1.34
TACACTCGCC	1.09
TACACTGCAA	2.25
TACACTGTCT	1.01
TACACTTAGT	1.06
TACAGCTCGG	0.974
TACAGGAGT	1.07
TACAGGTGTA	1.39
TACAGTGTGC	1.04
TACATATGAA	1.02
TACATCGATG	0.952
TACATGCTTT	1.03
TACATGGTAA	0.995
TACATGGTGA	1.05
TACATGTATA	0.992
TACATTAGGA	0.97
TACCAATA	1.08
TACCAGGCAT	1
TACCAGGTTG	1.45
TACCCCAGCG	2.86
TACCCGGTCA	1.01
TACCCGTTTG	1.07

Sequence	switch fluorescence ratio
TACCCTCTGA	1.04
TACCGATCGA	1.08
TACCGATGTT	1.05
TACCGCCACC	1.57
TACCGCGCGG	1.03
TACCGGGACC	1.07
TACCGTGGA	1.02
TACCTAC	1.43
TACCTAGGCT	1.03
TACCTAGTAC	1.13
TACCTATT	1.05
TACCTCCCA	1.38
TACCTCGGAC	1.12
TACCTGGAAG	0.972
TACCTGGCGT	0.964
TACCTGGGA	1.01
TACCTTCTGT	1.19
TACCTTGAT	1.04
TACCTTGCA	1.06
TACGAAAGCG	1.06
TACGAACGCG	1.2
TACGAATGTG	0.936
TACGACAGTG	1.05
TACGAGGGCA	1.08
TACGAGGGCC	1.08
TACGAGTAGG	1.01

Sequence	switch fluorescence ratio
TACGATCTAA	1.02
TACGCTAGTC	1.08
TACGCTTAGT	1.03
TACGGCAACT	1.27
TACGGGAAAA	1.06
TACGGGCGTA	1.05
TACGGGTCTG	1
TACGGTGATT	1.04
TACGTAAGAT	1.19
TACGTACCCC	1.39
TACGTGCGA	1.22
TACGTGGTTC	0.996
TACGTGTGAC	1
TACGTTCTGT	1.01
TACGTTTCCT	1.03
TACGTTTTAT	1.04
TACTATTTA	1.06
TACTCAACAC	1.29
TACTCAGAAG	1.06
TACTCGCCTT	1.15
TACTCTGGCT	0.998
TACTCTGTCG	1.13
TACTGAAAT	1.06
TACTGAGTAA	1.01
TACTGATATG	0.893
TACTGCCTCA	1.04

Sequence	switch fluorescence ratio
TACTGGCCTG	0.997
TACTGTTGAC	1.12
TACTTACGGT	1.62
TACTTAGTAC	1.07
TACTTCAGAT	0.992
TACTTCCCAT	1.11
TACTTGAAGG	1.04
TACTTGGGA	0.993
TACTTTGCAT	1.26
TACTTTGTCG	1.07
TAGAAATGGA	0.99
TAGAACAATA	1.01
TAGAACCCTT	1
TAGAAGAGTC	0.99
TAGACAACAT	1.03
TAGACAATTC	1.07
TAGACAGAGG	1.02
TAGACATGTC	0.991
TAGACCTAAG	1.04
TAGACGCAGA	1.1
TAGACGGGTC	0.987
TAGACTAATT	1.01
TAGAGATTC	1.02
TAGAGCTTTA	0.995
TAGAGGCGC	0.96
TAGAGGGTAT	1.01

Sequence	switch fluorescence ratio
TAGAGGTAGC	1.04
TAGAGGTT	0.944
TAGAGGTTAC	0.974
TAGAGGTTTC	0.931
TAGAGTACGG	0.987
TAGAGTCAGT	1
TAGAGTGGGT	0.979
TAGAGTTAAT	0.983
TAGATACTGG	1.03
TAGATAGGAA	1.01
TAGATAGTGT	1
TAGATATGGG	0.965
TAGATATGTC	0.988
TAGATCCTG	1
TAGATCTAAA	1.03
TAGATCTGAC	0.99
TAGATGAGGA	0.993
TAGATGGAG	1.06
TAGATGGCTC	0.995
TAGATGTACT	1
TAGATTGGTT	0.98
TAGATTGTCG	0.966
TAGCAACAA	1.39
TAGCAACATT	1.04
TAGCAAGAGT	1.54
TAGCACCTTT	1.02

Sequence	switch fluorescence ratio
TAGCACTACG	1.22
TAGCAGACTT	1.01
TAGCAGCAA	3.67
TAGCAGCCGT	1.02
TAGCATGAGG	0.995
TAGCATGTAA	1.02
TAGCATTATC	1.89
TAGCATTTAT	0.982
TAGCATTTGA	1.04
TAGCCAGAGC	0.978
TAGCCAGGAG	1.15
TAGCCAGGTT	1.1
TAGCCCTCCA	1.06
TAGCCGTTGT	1.04
TAGCCTGCC	1.41
TAGCGACACG	1.01
TAGCGAGTCA	0.971
TAGCGATCAG	0.979
TAGCGCCTCT	0.983
TAGCGGCAAG	1.04
TAGCGGCAGG	0.995
TAGCGGGGAT	0.999
TAGCGGTTT	0.982
TAGCGTCTT	0.987
TAGCTGTAAG	0.946
TAGCTGTGCC	1.02

Sequence	switch fluorescence ratio
TAGCTGTGCG	0.978
TAGCTTACCT	1.28
TAGCTTCGGG	0.961
TAGCTTTGAT	0.963
TAGCTTTGGT	0.976
TAGGAATCGC	0.988
TAGGACAGTT	1.01
TAGGACGAAA	1.13
TAGGACGTCG	1.02
TAGGACTTGT	0.976
TAGGAGAAAG	0.975
TAGGAGATCG	0.96
TAGGCACGCA	1.07
TAGGCATTCA	1.01
TAGGCCGGGG	0.971
TAGGCCTCCA	1.02
TAGGCCTGTG	0.963
TAGGCTCACT	0.991
TAGGCTGCCT	1.01
